Assay results as given in publication PMC10691697, “A small molecule exerts selective antiviral activity by targeting the human cytomegalovirus nuclear egress complex” (PLOS Pathogens, 2023).
Where “and” joins values, the source holds several entries; their conditions need not be identical. Equal values may be shown once.

Tests used:
[1] = molecular target: T1, HCMV UL50-UL53 (Human cytomegalovirus, UniProt P16794); assay: biochemical; format: binding; details: for Fluorescence at 620 nm for NEC + GK1, Mean / HTRF ratio for NEC + GK1, Mean: triplicate
T1 construct: GST (N, cleaved yes); 13-residue glycine-serine linker […]; made in house; host or cells: E. coli BL21 (DE3) RIPL

[2] = test system: pp28 expression; set-up: method as in PMID 28100301; details: 1 μM; cited from earlier work
[3] = molecular target: T2, HCMV NEC (His-UL50, Myc-UL53) (Human cytomegalovirus, UniProt P16794); assay: co-immunoprecipitation assay of His-UL50 and Myc-UL53; format: binding; details: 10 or 20 μM GK1; 0.3 μM NEC
T2 construct: GST (N, cleaved yes); 13-residue glycine-serine linker […]; made in house; host or cells: E. coli BL21 (DE3) RIPL
Protocol: 0.3 μM purified HCMV NEC in 50 mM Hepes (pH 7.5) and 200 mM NaCl were incubated with DMSO or with 10 μM or 20 μM GK1 at RT for 30 min followed by incubation at 4°C overnight. For immunoprecipitation of His-UL50, each sample was incubated with 25 μL Dynabeads His-Tag magnetic beads (Invitrogen) on a roller for 10 min at RT, followed by four washes and then elution from the beads using the manufacturer’s guidance. For immunoprecipitation of Myc-UL53, each sample was incubated with 50 μL Pierce anti-c-Myc magnetic beads (ThermoFisher Scientific) on a roller for 30 min at RT. Then the beads were washed three times and the proteins were eluted from the beads with 50 μL 0.5mg/mL Pierce c-Myc peptide (ThermoFisher Scientific) following the manufacturer’s guidance. To test the binding specificity of the beads, 0.3 μM purified HCMV His-UL50 alone or HCMV Myc-UL53 alone was incubated with His-tag magnetic beads or Myc-tag magnetic beads, and the corresponding immunoprecipitation was performed with the same protocols described above. Aliquots of the input samples (2.5% of what was incubated with each type of magnetic beads) as well as proteins eluted from the beads (20% of each eluate) were subjected to SDS-PAGE, followed by Western blot analysis using a mouse anti-His antibody (1:1,000, Invitrogen) and a mouse anti-Myc antibody (1:1,000, Invitrogen).

[4] = molecular target: T3, UL50_C54S+UL53 (Human cytomegalovirus, UniProt P16794); assay: biochemical; format: binding; details: replicates, read-out: normalized FRET signal relative to control without inhibitor
T3 construct: GST (N, cleaved yes); 13-residue glycine-serine linker […]; made in house; host or cells: E. coli BL21 (DE3) RIPL

[5] = molecular target: T4, HSV-1 P30-UL42 (Human herpesvirus 1, UniProt P10226); assay: biochemical; format: binding
T4 construct: containing UL42 residues 1–340; GST (N); glycine-serine linker of the modified pGEX6p plasmid (presence inferred) (N); made in house; host or cells: E. coli (UL42: pLysS BL21)

[6] = HTRF assay without protein targets (interference); details: for HTRF ratio for GK1 / Fluorescence at 620 nm (GK1): no protein, singlicate; for HTRF ratio for GK1: A665nm/A620nm * 10000
[7] = molecular target: T5, UL50_C35N+UL53 (Human cytomegalovirus, UniProt P16794); assay: biochemical; format: binding; details: replicates, read-out: normalized FRET signal relative to control without inhibitor
T5 construct: GST (N, cleaved yes); 13-residue glycine-serine linker […]; made in house; host or cells: E. coli BL21 (DE3) RIPL

For `C=CC(=O)Nc1cccc(Oc2cc(Cl)nc3[nH]ccc23)c1` [GK1], the “Fluorescence at 620 nm for NEC + GK1, Mean” value ([1]; 34.7 microM) was 6032, the “HTRF ratio for NEC + GK1, Mean” value ([1]; 34.7 microM) was 15627 and the “HTRF ratio for NEC + GK1” value ([1]; 49.5 microM, A665nm/A620nm * 10000, replicates) was 14015 and 15215 and 18406. For the same compound, the “Fluorescence at 620 nm for NEC + GK1” value ([1]; 49.5 microM, replicates) was 5718 and 5728 and 5589, the “Fluorescence at 620 nm for NEC + GK1, Mean” value ([1]; 49.5 microM) was 5678 and the “HTRF ratio for NEC + GK1, Mean” value ([1]; 49.5 microM) was 15879. It also gave a remaining activity at 0.2 µM ([1]; WT UL50-UL53, 0.20 μM compound, replicates, read-out: normalized FRET signal relative to control without inhibitor) of 91%, a remaining activity at 1.56 µM ([1]; WT UL50-UL53, 1.56 μM compound, replicates, read-out: normalized FRET signal relative to control without inhibitor) of 71% and a remaining activity at 50 µM ([1]; WT UL50-UL53, 50.00 μM compound, replicates, read-out: normalized FRET signal relative to control without inhibitor) of 25%. The remaining activity at 25 µM ([1]; WT UL50-UL53, […] compound, replicates, read-out: normalized FRET signal relative to control without inhibitor) was 26%, the IC50 ([1]; tagged HCMV NEC complex) was 5.3 ± 1.1 µM and the “inhibition of pp28 expression in a screen” value [2] was “did not score as positive”. For the same compound, the “co-immunoprecipitation of His-UL50 by anti-Myc antibody” value [3] was “decreased co-immunoprecipitation of His-UL50”, the “decrease of co-immunoprecipitation of Myc-UL53 by anti-His antibody” value [3] was over 2 fold and the remaining activity at 3.13 µM ([4]; 3.13 μM compound) was 76%. It also gave a remaining activity at 6.25 µM ([4]; 6.25 μM compound) of 60%, a remaining activity at 1.56 µM ([5]; HSV1 P30-UL42, 1.56 μM compound, replicates, read-out: normalized FRET signal relative to control without inhibitor) of 92% and a remaining activity at 3.13 µM ([5]; HSV1 P30-UL42, 3.13 μM compound, replicates, read-out: normalized FRET signal relative to control without inhibitor) of 99%. The remaining activity at 6.25 µM ([5]; HSV1 P30-UL42, 6.25 μM compound, replicates, read-out: normalized FRET signal relative to control without inhibitor) was 108%, the remaining activity at 50 µM ([5]; HSV1 P30-UL42, 50.00 μM compound, replicates, read-out: normalized FRET signal relative to control without inhibitor) was 116% and the “inhibition in the HSV-1 P30-UL42 counterscreen assay” value ([5]; all concentrations tested (up to 50 μM)) was “did not show meaningful inhibition”. For the same compound, the “effect on HTRF signal in the absence of protein (interference)” value [6] was “little or no effect”, the “HTRF ratio for GK1” value ([6]; 0.5 microM) was 7386 and the “Fluorescence at 620 nm (GK1)” value ([6]; 0.5 microM) was 7173. For the same compound, the “HTRF ratio for GK1” value ([6]; 0.71 microM) was 7809, the “Fluorescence at 620 nm (GK1)” value ([6]; 0.71 microM) was 7007 and the “HTRF ratio for GK1” value ([6]; 1.01 microM) was 7909. For the same compound, the “Fluorescence at 620 nm (GK1)” value ([6]; 1.01 microM) was 6787, the “HTRF ratio for GK1” value ([6]; 1.43 microM) was 8220 and the “Fluorescence at 620 nm (GK1)” value ([6]; 1.43 microM) was 6741. For the same compound, the “HTRF ratio for GK1” value ([6]; 2.04 microM) was 7808, the “Fluorescence at 620 nm (GK1)” value ([6]; 2.04 microM) was 6607 and the “HTRF ratio for GK1” value ([6]; 2.91 microM) was 8020. For the same compound, the “Fluorescence at 620 nm (GK1)” value ([6]; 2.91 microM) was 6586, the “HTRF ratio for GK1” value ([6]; 4.15 microM) was 7605 and the “Fluorescence at 620 nm (GK1)” value ([6]; 4.15 microM) was 6502. For the same compound, the “HTRF ratio for GK1” value ([6]; 5.91 microM) was 8051, the “Fluorescence at 620 nm (GK1)” value ([6]; 5.91 microM) was 6707 and the “HTRF ratio for GK1” value ([6]; 8.42 microM) was 7714. For the same compound, the “Fluorescence at 620 nm (GK1)” value ([6]; 8.42 microM) was 6521, the “HTRF ratio for GK1” value ([6]; 12 microM) was 7648 and the “Fluorescence at 620 nm (GK1)” value ([6]; 12 microM) was 6638. For the same compound, the “HTRF ratio for GK1” value ([6]; 17.1 microM) was 7606, the “Fluorescence at 620 nm (GK1)” value ([6]; 17.1 microM) was 6601 and the “HTRF ratio for GK1” value ([6]; 24.2 microM) was 7973. The “Fluorescence at 620 nm (GK1)” value ([6]; 24.2 microM) was 6467, the “HTRF ratio for GK1” value ([6]; 34.7 microM) was 7675 and the “Fluorescence at 620 nm (GK1)” value ([6]; 34.7 microM) was 6177. For the same compound, the “HTRF ratio for GK1” value ([6]; 49.5 microM) was 7520, the “Fluorescence at 620 nm (GK1)” value ([6]; 49.5 microM) was 6154 and the remaining activity at 3.13 µM ([7]; 3.13 μM compound) was 93%. For the same compound, the remaining activity at 6.25 µM ([7]; 6.25 μM compound) was 85%.
